# Measured values from the supplement of paper PMC3334620.
# Over roughly 33,000 sequences, “E-score (-0.5 to 0.5)” has its median near -0.021; the highest 2% begin near 0.32. Some of the results follow.
# Biological target: T1, Zap1 (UniProt P47043)
# T1 sequence: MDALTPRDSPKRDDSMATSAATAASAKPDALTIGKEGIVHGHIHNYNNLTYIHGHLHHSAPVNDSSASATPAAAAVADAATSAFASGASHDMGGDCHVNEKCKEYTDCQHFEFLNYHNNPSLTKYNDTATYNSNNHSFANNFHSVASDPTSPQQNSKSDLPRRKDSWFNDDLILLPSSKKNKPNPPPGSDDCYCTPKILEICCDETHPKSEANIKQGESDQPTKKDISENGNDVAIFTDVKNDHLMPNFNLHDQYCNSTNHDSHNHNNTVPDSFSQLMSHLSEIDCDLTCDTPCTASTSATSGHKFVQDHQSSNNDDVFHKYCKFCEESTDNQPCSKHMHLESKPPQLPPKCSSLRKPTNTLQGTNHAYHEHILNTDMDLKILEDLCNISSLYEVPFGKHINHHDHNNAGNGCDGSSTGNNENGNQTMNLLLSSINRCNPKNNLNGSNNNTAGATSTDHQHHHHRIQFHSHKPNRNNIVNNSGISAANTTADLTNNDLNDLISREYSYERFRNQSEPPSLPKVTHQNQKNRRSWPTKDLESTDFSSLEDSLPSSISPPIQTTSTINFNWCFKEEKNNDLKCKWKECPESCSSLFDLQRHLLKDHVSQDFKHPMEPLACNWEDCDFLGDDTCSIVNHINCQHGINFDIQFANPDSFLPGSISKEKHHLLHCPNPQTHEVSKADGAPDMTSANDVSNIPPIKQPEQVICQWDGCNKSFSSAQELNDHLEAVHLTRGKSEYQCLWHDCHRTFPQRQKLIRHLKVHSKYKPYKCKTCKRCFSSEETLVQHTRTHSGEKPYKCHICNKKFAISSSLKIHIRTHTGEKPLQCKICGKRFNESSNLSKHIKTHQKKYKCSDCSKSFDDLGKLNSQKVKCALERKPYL
# Assay: PBM E-score (8-mer binding enrichment) (E-score (-0.5 to 0.5)); higher = stronger / more preferred TF binding; most listed sequences are background and not binding sites
# Settings: protein concentration: 200 nM; construct: GST-full length
# Summary of the method: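 The E-score, a modified Wilcoxon-Mann-Whitney statistic, was computed by the Universal PBM Analysis Suite for every ungapped eight-base word pooled with its reverse complement. Scans behind it were normalised with masliner after bound GST-tagged yeast transcription factors were detected with fluorescent anti-GST. The proteins, at about 100-200 nM, had been applied to universal all-10-mer Agilent arrays made double-stranded by primer extension.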
row,Sequence,PBM E-score
1,GTAGCCCA,-0.0588
2,GCAGGGGA,-0.177
3,AGCCTGGC,-0.293
4,CGGAACGC,-0.215
5,CCGGAGTC,-0.0405
6,CGGACCTC,-0.0859
7,GCTATAGA,-0.136
8,GATGCGGC,-0.118
9,AGTTTAAC,0.0788
10,CGAGACTA,-0.0504
11,CGCTTGGC,-0.303
12,AGTAGACC,-0.037
13,CACCCCTA,0.0983
14,CTGCCTGC,-0.22
15,CACCGCCG,-0.124
16,CAATATGA,-0.0378
17,ATACCCTA,0.459
18,AATCTCTA,0.0108
19,CGTTGCAA,0.0148
20,GCTAAGAC,-0.124
21,CAAGCTCG,-0.0494
22,ATAAACGC,-0.221
23,CCGTTGGC,-0.157
24,CTGTATCC,-0.00943
25,CCGATCAC,-0.0109

row,Sequence,PBM E-score
1,CTAGGGCC,-0.0851
2,TAAACCGA,-0.0627
3,GTTCGTCA,-0.0052
4,AGCCCTGC,-0.192
5,AGGGCCAT,0.00699
6,CGTGGGGA,0.0107
7,GCAGGTGA,-0.0435
8,CTCATGTC,-0.109
9,AACGGCTT,-0.209
10,AGCCATGG,-0.1
11,TACGGCTA,-0.0641
12,AGCCTTCC,-0.343
13,ATCGGTTC,0.0913
14,CAGATGAG,-0.0683
15,AGAGCTGG,-0.197
16,GGGGCCAA,-0.069
17,GACTGTAA,0.0478
18,GGAGCCCA,-0.166
19,GCCTTTGA,0.0766
20,GTAGTTAA,0.2
21,ACTTAGGA,-0.067
22,CAGGCCAC,-0.134
23,AGTAGATG,-0.0249
24,CCGCTAAG,0.101
25,CGGGCCCG,-0.019

row,Sequence,PBM E-score
1,AGCTCCGA,-0.184
2,CAGACGCG,0.0199
3,ACCGGGAA,0.118
4,GTGACACA,-0.0403
5,AGGGGTAC,0.398
6,CTATTCAA,0.205
7,GGGAGTAA,0.101
8,AGCTTGGC,0.0137
9,ACTCATTG,-0.0633
10,AGCACGCG,-0.131
11,GAGACGAA,-0.0952
12,CTTCGTTC,-0.232
13,CGTGTTCC,-0.156
14,CGAGACCC,0.248
15,GCGTCTCC,-0.163
16,AGGTGCCA,0.0049
17,AGATGGAG,-0.146
18,CTTGATGC,-0.106
19,GAAAAAAC,0.137
20,CTTTCTCA,0.129
21,ATAATGAT,0.118
22,GCGGTAGC,0.0107
23,ATACCACA,0.193
24,ATACGGTA,0.151
25,GAGTAGGC,-0.277

row,Sequence,PBM E-score
1,CACCTGGC,-0.0369
2,ACCCAACC,0.178
3,TCGGCAGA,-0.16
4,AAGAACTT,-0.0276
5,ACCTAACC,0.269
6,CCAATCTC,0.0579
7,CCAAATAA,0.182
8,GTATCTTA,0.135
9,ATGGTATG,-0.053
10,ACATGACA,0.0802
11,AAATCAAG,0.00887
12,ACCGCTTC,-0.148
13,CCAGGTGA,0.027
14,AGGGGGAC,-0.23
15,AACGAGGT,0.277
16,CCTCCGGA,-0.0743
17,GTGTTTTA,0.0887
18,ATTAACCA,0.246
19,CCGAGCAG,-0.0159
20,AACACCAG,-0.134
21,TAGGGGGA,-0.226
22,TTTCAAAA,0.321
23,AACTGGTA,0.0786
24,TCAGCAGA,-0.21
25,AGTACACT,-0.171

row,Sequence,PBM E-score
1,GTTCCGAA,0.149
2,CTAATGGA,0.0657
3,ACGAGGCT,0.0827
4,CTATATTC,0.0564
5,CCCCGATC,-0.087
6,GGGCATGA,-0.241
7,CGGTCTCA,0.035
8,GTCCCTCA,-0.108
9,AGTTAAAT,0.0523
10,GTCAAGCA,-0.238
11,AGTCGCTG,-0.0667
12,TAAGTGGA,0.163
13,ATTCAACC,0.126
14,ACAGTAAG,0.048
15,ATCTCCAA,0.0334
16,CCGGAAGC,-0.156
17,AAGTGAGA,-0.0484
18,CTACAATA,0.145
19,TAACTGCA,0.0396
20,CGCTCGTA,-0.0143
21,GCTACAAC,0.00769
22,TAGCGGGA,-0.132
23,TCGATGAA,-0.102
24,ATTCTCTC,-0.0801
25,ATCATCAA,0.0384

row,Sequence,PBM E-score
1,GCGGTGAC,0.19
2,TAAGGCCA,0.0396
3,GCGATTGA,-0.0546
4,CTACGCGC,-0.0598
5,CGAGCAAG,-0.123
6,ACAGTTCT,-0.0571
7,TCTGCGAA,-0.217
8,ACGTGTCA,-0.153
9,GACTCAGC,-0.199
10,ACTCAGTA,0.033
11,CAACGCCG,-0.0924
12,CCACAAGC,0.0428
13,CCGTGTAA,-0.125
14,AAGGCACC,0.0852
15,CTACTCAA,0.165
16,CAGCTTTC,-0.138
17,GCGGGGCA,-0.179
18,AACAGAAG,-0.0982
19,CTGCTCTC,-0.18
20,GCATCTAC,-0.1
21,GACGACCC,0.173
22,CGCCGTAC,-0.0521
23,ACTCCGAG,-0.109
24,ACCTCGGG,0.2
25,GAGGGTAA,0.264

row,Sequence,PBM E-score
1,GTTTTATA,0.0924
2,ACGATTCT,-0.156
3,ACTCAATG,0.0233
4,GACAGATC,-0.128
5,ACAAAACC,0.312
6,AACTCCCT,-0.0262
7,CATTTATC,-0.0103
8,TCAAATAA,0.0658
9,ATTTCTCA,-0.0175
10,AGGGTATA,0.407
11,ATGGGTTC,0.116
12,ACTGTAGA,0.00884
13,CGGGGTAC,0.316
14,CAGGTCGC,0.0273
15,CAGCGTAC,-0.212
16,CTCCTTTC,-0.0488
17,AAGCTTTA,0.0355
18,CCAAGGCA,-0.00551
19,ACCGTGTC,-0.0593
20,GACCCAAC,0.165
21,ACACTTCC,-0.00939
22,AATGTCGC,-0.176
23,CTCCGGCA,-0.0211
24,GGGTCGAC,0.0155
25,GCGGGGGA,-0.263

row,Sequence,PBM E-score
1,ATCACTTG,-0.00539
2,GGTCGCAA,0.142
3,CCATCACC,0.254
4,ATATAGGA,0.0539
5,GCCTATCA,0.00364
6,ATGTGATC,0.0887
7,CGTATAAA,0.246
8,CCTAAAGA,0.0641
9,GTAATCGA,0.084
10,TGGAAACA,-0.0824
11,GAGATTCA,-0.192
12,AGTGGCTA,0.0692
13,ACGAACAC,0.0706
14,AGGCCTTA,0.0176
15,CAATGACG,0.00061
16,TATTATCA,0.106
17,ATGTAAGC,-0.0794
18,CATGCTTA,-0.0902
19,TCTAATCA,-0.0243
20,GGATTTTA,-0.00871
21,CTACGTAG,-0.0165
22,AAGCGTCT,-0.232
23,CACCGTAC,-0.0708
24,AAATCCTG,-0.024
25,ACTATCAA,0.178

row,Sequence,PBM E-score
1,CCAGCCGA,-0.197
2,CGGAACTC,-0.237
3,ACAAGCGG,0.193
4,AATAGACC,-0.0595
5,GATGTCAC,-0.0681
6,ACCGTAAT,0.0558
7,ATGAGAAC,0.0779
8,ATCATGAC,0.3
9,AAGATCTT,0.137
10,CGGCGTCA,-0.0629
11,CTTTTTAA,0.119
12,CTCTGCAG,-0.126
13,CCCTTGAC,0.193
14,CAACTATG,0.00478
15,CGATTTCA,-0.0156
16,CAGGACTA,-0.0298
17,CGTTTCCA,0.0387
18,CTCGTTTA,-0.0846
19,AAGCGGAG,-0.191
